Patent US10597364B2, “Anthelmintic compounds, compositions and method of using thereof” (priority 2015, dated 2020)
Some of these results come from one statement about several compounds together.

Test system: Caco-2/TC7 cells
Conditions: intestinal cell model, relative to CC-1 (WO2014/023723)

Compound | more permeable relative to the prior art compound CC-1
O=[N+]([O-])c1ccc(N[C@H]2CC[C@H](Oc3cncc(N4CCN(CC5CCCC5)CC4)c3)CC2)cc1C(F)(F)F [Compound 27] | over 300%
O=[N+]([O-])c1ccc(N[C@H]2CC[C@H](Oc3ccnc(N4CCN(CC5CCCC5)CC4)c3)CC2)cc1C(F)(F)F [Compound 37, 4-nitro-N-[4-([2-[4-(cyclopentylmethyl)piperazin-1-yl]pyridin-4-yl]oxy)cyclohexyl]-3-(trifluoromethyl)] | over 300%
CCCC(=O)N1CCN(c2cncc(O[C@H]3CC[C@H](Nc4ccc([N+](=O)[O-])c(C(F)(F)F)c4)CC3)c2)CC1 [Compound 31] | over 300%
O=C(CC1CCC1)N1CCN(c2cc(O[C@H]3CC[C@H](Nc4ccc([N+](=O)[O-])c(C(F)(F)F)c4)CC3)ccn2)CC1 [Compound 8] | over 300%
CCCCC(=O)N1CCN(c2cc(O[C@H]3CC[C@H](Nc4ccc([N+](=O)[O-])c(C(F)(F)F)c4)CC3)ccn2)CC1 [Compound 10] | over 300%
CC(C)(C)OC(=O)N1CCN(c2ccnc(O[C@H]3CC[C@H](Nc4ccc([N+](=O)[O-])c(C(F)(F)F)c4)CC3)c2)CC1 [Compound 13] | 200-300%
CCCOC(=O)N1CCN(c2cncc(O[C@H]3CC[C@H](Nc4ccc([N+](=O)[O-])c(C(F)(F)F)c4)CC3)c2)CC1 [Compound 21] | over 300%
O=C(CC1CCCCC1)N1CCN(c2cc(O[C@H]3CC[C@H](Nc4ccc([N+](=O)[O-])c(C(F)(F)F)c4)CC3)ccn2)CC1 [Compound 14] | over 300%
O=[N+]([O-])c1ccc(N[C@H]2CC[C@H](Oc3cncc(N4CCN(Cc5ccc(F)cc5)CC4)c3)CC2)cc1C(F)(F)F [Compound 4, 4-nitro-N-[4-[(5-[4-[(4-fluorophenyl)methyl]piperazin-1-yl]pyridin-3-yl)oxy]cyclohexyl]-3-(trifluoromethyl)aniline] | over 300%
O=C(OC1CCCC1)N1CCN(c2ccnc(O[C@H]3CC[C@H](Nc4ccc([N+](=O)[O-])c(C(F)(F)F)c4)CC3)c2)CC1 [Compound 9, cyclopentyl 4-[2-[(4-[[4-nitro-3-(trifluoromethyl)phenyl]amino]cyclohexyl)oxy]pyridin-4-yl]piperazine-1-carboxylate] | over 300%
CC(C)(C)CC(=O)N1CCN(c2cncc(O[C@H]3CC[C@H](Nc4ccc([N+](=O)[O-])c(C(F)(F)F)c4)CC3)c2)CC1 [Compound 35] | over 300%
CCCOC(=O)N1CCN(c2ccnc(O[C@H]3CC[C@H](Nc4ccc([N+](=O)[O-])c(C(F)(F)F)c4)CC3)c2)CC1 [Compound 36] | over 300%
O=C(Oc1ccc(F)cc1)N1CCN(c2cncc(O[C@H]3CC[C@H](Nc4ccc([N+](=O)[O-])c(C(F)(F)F)c4)CC3)c2)CC1 [Compound 11] | 100-200%
O=C(CCC(F)(F)F)N1CCN(c2cc(O[C@H]3CC[C@H](Nc4ccc([N+](=O)[O-])c(C(F)(F)F)c4)CC3)ccn2)CC1 [Compound 24] | over 300%
O=[N+]([O-])c1ccc(N[C@H]2CC[C@H](Oc3cncc(N4CCN(Cc5ccc(C(F)(F)F)cc5)CC4)c3)CC2)cc1C(F)(F)F [Compound 18] | 100-200%
CCCCC(=O)N1CCN(c2ccnc(O[C@H]3CC[C@H](Nc4ccc([N+](=O)[O-])c(C(F)(F)F)c4)CC3)c2)CC1 [Compound 17] | over 300%
CC(C)(C)OC(=O)N1CCN(c2cc(O[C@H]3CC[C@H](Nc4ccc([N+](=O)[O-])c(C(F)(F)F)c4)CC3)ccn2)CC1 [Compound 34] | over 300%
O=C(Cc1ccc(F)cc1)N1CCN(c2ccnc(O[C@H]3CC[C@H](Nc4ccc([N+](=O)[O-])c(C(F)(F)F)c4)CC3)c2)CC1 [Compound 23] | over 300%
CC(C)(C)OC(=O)N1CCN(c2cncc(O[C@H]3CC[C@H](Nc4ccc([N+](=O)[O-])c(C(F)(F)F)c4)CC3)c2)CC1 [Compound 15] | over 300%
